Data taken from the supplement of paper PMC12217912.
The other results are listed elsewhere or left out. The full chains were built here from the parent and the listed change. Values near 0.05 are background.

B1: TEV protease; numbered along this chain (parent)
chain: MGESLFKGPRDYNPISSSICHLTNESDGHTTSLYGIGFGPFIITNKHLFRRNNGTLVVQSLHGVFKVKDTTTLQQHLVDGRDMIIIRMPKDFPPFPQKLKFREPQREERICLVTTNFQTKSMSSMVSDTSCTFPSGDGIFWKHWIQTKDGQCGSPLVSTRDGFIVGIHSASNFTNTNNYFTSVPKNFMELLTNQEAQQWVSGWRLNADSVLWGGHKVFMVKPEEPFQPVKEATQL

Variants of: B1
Assay: raw area under fraction-flipped curve 0-4 h after induction (AUC4h, not background-subtracted), DNA-recorder readout of cleavage of the substrate (dimensionless); higher = more cleavage of the substrate by the protease variant
Conditions: temperature: 34 °C; time window: 0-4 h after rhamnose induction
Protocol: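 In vivo DNA recorder in E. coli TOP10(DE3) ΔrhaA at 34 °C. Each TEVp single-site mutant (parent TEVp 0) is paired with a single-site variant of the 7-mer TEVs (canonical ENLYFQ|S). The substrate sits between flexible linkers in a Bxb1-sfGFP-TEVs-SsrA fusion, so cleavage stabilises Bxb1 and speeds flipping of a recombination array, read by NGS. The value is the raw area under the fraction-flipped curve over 0-4 h after rhamnose induction (AUC4h), with ≥20 reads per time point. It is not background-subtracted; inactive controls average about 0.047.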
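Also: Bxb1 expression induced with 0.2% (w/v) L-rhamnose at OD600 near 0.5, cultures sampled hourly, flipped fraction per protease–substrate barcode pair counted by paired-end Illumina sequencing.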

Variant | area with substrate EALYFQS | area with substrate ECLYFQS | area with substrate EDLYFQS | area with substrate EFLYFQS | area with substrate EHLYFQS | area with substrate EILYFQS | area with substrate EKLYFQS | area with substrate EMLYFQS | area with substrate EQLYFQS | area with substrate ERLYFQS | area with substrate ESLYFQS | area with substrate ETLYFQS | area with substrate EVLYFQS | area with substrate EWLYFQS | area with substrate EELYFQS | area with substrate EGLYFQS | area with substrate ELLYFQS | area with substrate EYLYFQS | area with substrate EPLYFQS
N24Q | 0.0837 | 0.0956 | 0.11 | 0.0821 | 0.109 | 0.0654 | 0.0866 | 0.096 | 0.106 | 0.113 | 0.0821 | 0.0904 | 0.0708 | 0.0935 |  |  |  |  | 
T30S | 0.0909 | 0.125 | 0.106 | 0.103 | 0.114 | 0.0942 | 0.118 | 0.136 | 0.127 | 0.128 | 0.119 | 0.117 | 0.112 |  | 0.0779 | 0.09 | 0.0852 | 0.113 | 
M88E | 0.0573 | 0.0514 | 0.0239 |  | 0.0664 |  |  |  | 0.0627 |  | 0.0531 |  |  | 0.115 | 0.0501 | 0.0658 | 0.0436 |  | 0.0435
W144K | 0.106 | 0.0737 | 0.1 | 0.0917 | 0.0834 |  | 0.0771 |  |  | 0.068 | 0.0852 | 0.104 |  | 0.0351 |  | 0.0696 |  |  | 
W144S | 0.129 | 0.102 |  | 0.138 |  | 0.083 | 0.0806 | 0.0788 | 0.114 | 0.123 | 0.0971 | 0.0778 |  |  | 0.0837 |  |  | 0.0507 | 0.0967
W144C | 0.0896 | 0.115 |  | 0.0845 |  | 0.0813 | 0.0922 | 0.0782 | 0.0986 | 0.0934 | 0.117 | 0.0811 | 0.0832 | 0.0882 | 0.113 | 0.0788 | 0.0741 | 0.0933 | 0.133
E224N | 0.147 | 0.098 | 0.0958 |  | 0.0998 | 0.102 | 0.073 | 0.0673 | 0.0979 | 0.134 | 0.108 |  | 0.0587 | 0.0677 | 0.111 |  | 0.055 | 0.099 | 0.0497
E224K | 0.113 | 0.0782 | 0.115 |  | 0.104 | 0.0869 | 0.0965 | 0.123 | 0.117 |  | 0.0884 |  | 0.0908 | 0.0983 |  | 0.0774 | 0.0692 | 0.0788 | 
E224H | 0.13 |  | 0.136 | 0.12 | 0.105 | 0.0939 | 0.0982 |  |  | 0.0717 | 0.0899 | 0.0987 | 0.0909 | 0.0958 | 0.0997 | 0.082 |  |  | 0.135
L56T | 0.063 |  | 0.0748 | 0.0795 |  |  | 0.055 | 0.0697 | 0.073 | 0.0759 | 0.0454 |  | 0.0609 |  | 0.0569 |  | 0.059 | 0.108 | 0.0853
A232K | 0.164 | 0.133 |  |  |  | 0.075 |  | 0.129 |  |  | 0.127 | 0.153 |  |  |  |  |  |  | 0.0081
A232T | 0.142 | 0.138 |  | 0.0918 |  | 0.112 | 0.0079 | 0.13 |  | 0.109 |  |  | 0.0645 |  | 0.0937 |  |  | 0.129 | 
A232F | 0.111 | 0.0438 | 0.126 |  |  | 0.0918 | 0.1 |  |  |  |  |  |  |  |  |  |  |  | 
G136T | 0.116 | 0.111 | 0.122 | 0.0901 | 0.112 | 0.0781 | 0.126 | 0.108 | 0.124 | 0.093 | 0.0878 |  | 0.0858 | 0.0944 | 0.128 | 0.0783 | 0.0881 |  | 0.138
P222H | 0.096 | 0.0737 | 0.128 | 0.0946 |  | 0.0963 | 0.0884 | 0.0893 |  | 0.0698 | 0.0978 |  |  | 0.0965 | 0.12 | 0.0538 |  |  | 
I167K | 0.0727 | 0.0552 | 0.0503 | 0.0657 | 0.0568 | 0.0364 | 0.0485 | 0.0492 | 0.0552 | 0.0559 | 0.0507 | 0.0512 | 0.0455 | 0.0631 | 0.0438 | 0.0497 |  | 0.0476 | 0.0534
S32R | 0.133 | 0.0988 | 0.132 |  | 0.0806 | 0.0997 | 0.104 | 0.115 | 0.111 | 0.108 | 0.091 | 0.127 | 0.118 |  | 0.117 |  | 0.104 | 0.069 | 0.123
R160N | 0.141 | 0.116 |  |  |  |  | 0.125 | 0.131 | 0.154 |  | 0.101 | 0.105 |  | 0.111 |  | 0.127 | 0.13 |  | 
R160I | 0.114 | 0.0925 | 0.117 | 0.107 |  | 0.0802 | 0.104 | 0.112 | 0.101 | 0.0903 | 0.102 | 0.108 | 0.0892 | 0.0962 | 0.131 | 0.0812 |  |  | 
P40I | 0.101 | 0.0963 | 0.104 |  | 0.0989 |  | 0.108 | 0.119 | 0.099 | 0.0926 | 0.0948 |  | 0.0711 | 0.0743 | 0.1 | 0.0802 | 0.0819 |  | 
L112C | 0.0842 |  | 0.0821 |  |  | 0.0851 | 0.0892 |  | 0.0798 | 0.084 | 0.0687 |  | 0.0779 | 0.074 | 0.0783 | 0.0662 | 0.0702 | 0.0708 | 
L112Y | 0.0801 | 0.0706 |  |  | 0.0738 | 0.0663 | 0.0743 | 0.064 | 0.0774 | 0.0847 | 0.0752 |  | 0.0557 |  | 0.0779 |  | 0.0728 | 0.0831 | 0.0762
P104L | 0.0587 |  | 0.0507 | 0.0582 | 0.0525 | 0.0616 | 0.064 | 0.0675 | 0.0536 | 0.0698 | 0.0542 | 0.0614 | 0.0497 | 0.0441 | 0.0577 | 0.0685 | 0.0486 | 0.059 | 0.0498
P104M | 0.0616 | 0.0519 | 0.066 |  | 0.0321 | 0.05 | 0.0512 |  | 0.0606 | 0.0481 |  | 0.0515 | 0.0617 | 0.0537 | 0.0553 |  | 0.0681 | 0.0462 | 0.0534
P104W | 0.0431 | 0.0464 | 0.0217 | 0.0484 | 0.0513 |  | 0.0571 | 0.0542 | 0.11 | 0.0578 | 0.0521 | 0.0612 | 0.0532 | 0.0566 | 0.0515 | 0.0507 |  | 0.0565 | 0.0358
